Source: US9872922B2, “Anti-EFNA4 antibody-drug conjugates” (PFIZER, INC., priority 2013, dated 2018)

How the values were obtained:
MX-1 = test: Flow cytometry antibody binding (MCF), MX-1; conditions: 10 μg/ml antibody; MX-1, Breast
Method: (§1) Binding of humanized anti-EFNA4 antibodies huE22 and huE47 was assessed on EFNA4 expressing cells by flow cytometry. Adherent cells were dissociated using TrpLE Express (GIBCO cat #12604-021), neutralized with cell culture media and counted. Cells were plated into a U-bottom 96-well plate (BD Falcon cat #353077) with 5×10e5 cells/100 μL media/well. The plate was centrifuged at 300×g, 5 minutes, 4° C. to pellet cells and the supernatant was discarded. All reagents were kept on ice for the following steps. Each pellet was resuspended in 100 μL primary humanized anti-EFNA4 antibody (huE22 or huE47) or negative control antibody at 10 μg/mL in 3% BSA in PBS. The plate was incubated on ice for 30 minutes. The plate was centrifuged and the cell pellets were washed in 200 μL 3% BSA in PBS. Each cell pellet was resuspended in 100 μL of R-phycoerythrin (PE)-conjugated goat anti-human IgG Fc fragment (Jackson ImmunoResearch cat #109-115-098) that had been diluted 1:50 in 3% BSA in PBS. The plate was incubated on ice for 30 minutes. […] The samples were analyzed by flow cytometry using 5 μL 7AAD (B-D Pharmingen cat #51-68981E) per sample as a viability stain.
(§2) Endogenous EFNA4 expressing cancer cell lines were analyzed: Breast cell lines BT-483, HCC202 and MX-1, Chronic Lymphocytic Leukemia (CLL) cell line MEC1 and mantle cell lymphoma (MCL) cell line Z138.

Z138 = test: Flow cytometry antibody binding (MCF), Z138; conditions: 10 μg/ml antibody; Z138, MCL
Method: as §1, §2

HEK293T-EFNA4 cells = test: Phosphorylated histone H2A.X foci (DNA damage), HEK293T-EFNA4; type: cell-based, human; conditions: 0.3 μg/mL, four hours
Source text: Cells were visualized with a Zeiss LSM510 confocal microscope and analyzed for the y^− H2A.X biomarker of DNA damage and DNA content.

[1] = tested on: BR13 tumor-initiating cells; test: Tumor-initiating cell (TIC) frequency by limit dilution analysis, BR13; type: in vivo, mice (human tumor PDX)
Method: The day of harvest serial transplantation was chosen based on when tumors were starting to regress following huE22-AcBut-CM exposure. Tumors were dissociated and stained with anti-human ESA, anti-mouse CD45, and anti-mouse H2Kd antibodies. Three tumors per treatment group were pooled, and live human tumor cells (ESA+) were sorted by flow cytometry.
Tumors in recipient mice were measured weekly and at 21 weeks post-injection, tumors that exceeded 200 mm^3 in recipient mice were scored as positive. Using Poisson distribution statistics, via L-Calc software (Stemcell Technologies, Vancouver, BC), injected cell doses of recipients with and without tumors at 21 weeks post-transplant were used to calculate the frequencies of TIC in each population.

144580 = test: In vivo efficacy, 144580 breast tumor model (dosed intravenously); set-up: species or system mice
BR17 = test: In vivo efficacy, BR17 HER2+ breast tumor model; set-up: species or system mice; conditions: 0.27 mg/kg
BR64 = test: In vivo efficacy, BR64 TNBC Claudin-low tumor model; set-up: species or system mice; conditions: 0.27 mg/kg
[2] = tested on: Ovarian-44 (OV44) ovarian cancer PDX; test: In vivo efficacy, OV44 ovarian cancer PDX; set-up: species or system NOD/SCID mice (human tumor PDX)
OV124 = test: In vivo efficacy, OV124 ovarian cancer model; set-up: species or system NOD/SCID mice (human tumor PDX); conditions: 0.27 mg/kg
[3] = In vitro stability in rat plasma (ELISA total ADC / total antibody); type: in vitro ADME, Sprague Dawley rat; conditions: 37° C.; for % total huE22 Ab remaining: Rat plasma, mean; for % huE22-AcBut-CM remaining: rat plasma, mean (n=3), total ADC by ELISA
Method: Quantitation of the total ADC and total antibody, in plasma samples from pharmacokinetic studies in mice dosed with the ADC was determined using an enzyme-linked immunosorbent assay (ELISA) method. ELISA and liquid chromatography tandem mass spectrometry (LC-MS/MS) methods were also used to quantitate total ADC, total antibody and unconjugated payload from the exploratory toxicology studies in rat and monkey and in the in vitro plasma stability study with the ADC.
Total antibody concentrations could not be determined for the total ADC incubations in human plasma due to ELISA limitations of detection for a human IgG, in human plasma containing human IgG. […] NC=Not calculated; SD=Standard deviation.

B1: huE22 (antibody)
heavy: QVQLVQSGAEVKKPGASVKVSCKASGYTFTGYYIHWVRQAPGQGLEWMGWIYPGNFNTKYNERFKGRVTMTTDTSTSTAYMELRSLRSDDTAVYYCAREDGSPYYAMDYWGQGTSVTVSS[human IgG1 constant region omitted here]
VL: DIVMTQTPLSLSVTPGQPASISCRSSQSLVHSNGNTFLYWYLQKPGQSPQLLIYRVSNRFSGVPDRFSGSGSGTDFTLKISRVEAEDVGVYYCFQATHVPWTFGGGTKVEIK
- Mean Channel Fluorescent (MCF) (MX-1): 12.8
- Mean Channel Fluorescent (MCF) (Z138): 44
- H2A.X foci (DNA damage) (HEK293T-EFNA4 cells): no foci were observed

B2: huE22-AcBut-CM: huE22 conjugated via lysine residues to AcBut-N-acetyl-γ-calicheamicin dimethyl hydrazide (AcBut-CM) (conjugate)
heavy: QVQLVQSGAEVKKPGASVKVSCKASGYTFTGYYIHWVRQAPGQGLEWMGWIYPGNFNTKYNERFKGRVTMTTDTSTSTAYMELRSLRSDDTAVYYCAREDGSPYYAMDYWGQGTSVTVSS[human IgG1 constant region omitted here]
light: DIVMTQTPLSLSVTPGQPASISCRSSQSLVHSNGNTFLYWYLQKPGQSPQLLIYRVSNRFSGVPDRFSGSGSGTDFTLKISRVEAEDVGVYYCFQATHVPWTFGGGTKVEIKRTVAAPSVFIFPPSDEQLKSGTASVVCLLNNFYPREAKVQWKVDNALQSGNSQESVTEQDSKDSTYSLSSTLTLSKADYEKHKVYACEVTHQGLSSPVTKSFNRGEC
- # Animals with tumors ([1]; 380 cells implanted per animal, 10 animals in group, 21 weeks post-injection): 7
- reduction of number of TIC vs control-AcBut-CM treated ([1]; p=0.0007): about 2.6 fold
- TIC frequency (1 TIC in x cells) ([1]; tumors harvested day 21 post-initial treatment, scored 21 weeks post-injection): 270 cells
- % TGI (144580; 0.03 mg/kg): 11% TGI
- % TGI (144580; 0.1 mg/kg): 55% TGI
- Regression (TTP, Days) (144580; 0.3 mg/kg): Regression (53) Days
- Regression (TTP, Days) or % TGI (BR17): No Activity
- Regression (TTP, Days) or % TGI (BR64): No activity
- mean tumor volume ([2]; 0.09 mg/kg, Day 11): 328 ± 39
- mean tumor volume ([2]; 0.09 mg/kg, Day 18): 299 ± 29
- mean tumor volume ([2]; 0.09 mg/kg, Day 25): 313 ± 39
- mean tumor volume ([2]; 0.09 mg/kg, Day 0): 148 ± 16
- mean tumor volume ([2]; 0.09 mg/kg, Day 5): 236 ± 20
- mean tumor volume ([2]; 0.09 mg/kg, Day 32): 414 ± 50
- mean tumor volume ([2]; 0.09 mg/kg, Day 39): 497 ± 44
- mean tumor volume ([2]; 0.09 mg/kg, Day 46): 610 ± 28
- mean tumor volume ([2]; 0.09 mg/kg, Day 53): 957 ± 99
- % TGI ([2]; 0.09 mg/kg, OV44 PDX): 59% TGI
- tumor growth delay ([2]; 0.27 mg/kg): ~50 days
- tumor regression ([2]; 0.27 mg/kg): did not regress the tumors
- mean tumor volume ([2]; 0.27 mg/kg, Day 11): 250 ± 30
- mean tumor volume ([2]; 0.27 mg/kg, Day 18): 162 ± 24
- mean tumor volume ([2]; 0.27 mg/kg, Day 25): 142 ± 21
- mean tumor volume ([2]; 0.27 mg/kg, Day 95): 686 ± 111
- mean tumor volume ([2]; 0.27 mg/kg, Day 0): 152 ± 17
- mean tumor volume ([2]; 0.27 mg/kg, Day 5): 249 ± 35
- mean tumor volume ([2]; 0.27 mg/kg, Day 32): 137 ± 33
- mean tumor volume ([2]; 0.27 mg/kg, Day 39): 114 ± 43
- mean tumor volume ([2]; 0.27 mg/kg, Day 46): 140 ± 59
- mean tumor volume ([2]; 0.27 mg/kg, Day 53): 249 ± 152
- mean tumor volume ([2]; 0.27 mg/kg, Day 61): 242 ± 102
- mean tumor volume ([2]; 0.27 mg/kg, Day 67): 367 ± 143
- mean tumor volume ([2]; 0.27 mg/kg, Day 74): 452 ± 140
- mean tumor volume ([2]; 0.27 mg/kg, Day 81): 521 ± 130
- mean tumor volume ([2]; 0.27 mg/kg, Day 88): 619 ± 120
- mean tumor volume ([2]; 0.27 mg/kg, Day 102): 830 ± 82
- Regression (TTP, Days) ([2]; 0.27 mg/kg, OV44 PDX): Regression (53) Days
- effect on tumor growth ([2]; dose levels below 0.27 mg/kg): minimal effect
- Regression (TTP, Days) (OV124): Regression (152) Days
- % total huE22 Ab remaining ([3]; 1 ug/mL, 0 hours): 100%
- % total huE22 Ab remaining ([3]; 1 ug/mL, 8 hours): 76.8%
- % total huE22 Ab remaining ([3]; 1 ug/mL, 24 hours): 89.0%
- % total huE22 Ab remaining ([3]; 1 ug/mL, 48 hours): 81.4%
- % total huE22 Ab remaining ([3]; 1 ug/mL, 72 hours): 79.4%
- % total huE22 Ab remaining ([3]; 1 ug/mL, 168 hours): 64.6%
- % total huE22 Ab remaining ([3]; 50 ug/mL, 0 hours): 100%
- % total huE22 Ab remaining ([3]; 50 ug/mL, 8 hours): 98.1%
- % total huE22 Ab remaining ([3]; 50 ug/mL, 24 hours): 115%
- % total huE22 Ab remaining ([3]; 50 ug/mL, 48 hours): 111%
- % total huE22 Ab remaining ([3]; 50 ug/mL, 72 hours): 87.1%
- % total huE22 Ab remaining ([3]; 50 ug/mL, 168 hours): 83.3%
- % huE22-AcBut-CM remaining ([3]; 1 ug/mL, 0 hours): 100%
- % huE22-AcBut-CM remaining ([3]; 1 ug/mL, 8 hours): 95.2%
- % huE22-AcBut-CM remaining ([3]; 1 ug/mL, 24 hours): 93.0%
- % huE22-AcBut-CM remaining ([3]; 1 ug/mL, 48 hours): 86.2%
- % huE22-AcBut-CM remaining ([3]; 1 ug/mL, 72 hours): 81.0%
- % huE22-AcBut-CM remaining ([3]; 1 ug/mL, 168 hours): 69.0%
- % huE22-AcBut-CM remaining ([3]; 50 ug/mL, 0 hours): 100%
- % huE22-AcBut-CM remaining ([3]; 50 ug/mL, 8 hours): 94.7%
- % huE22-AcBut-CM remaining ([3]; 50 ug/mL, 24 hours): 97.3%
- % huE22-AcBut-CM remaining ([3]; 50 ug/mL, 48 hours): 107.6%
- % huE22-AcBut-CM remaining ([3]; 50 ug/mL, 72 hours): 96.9%
- % huE22-AcBut-CM remaining ([3]; 50 ug/mL, 168 hours): 70.1%
